# In the supplement of paper PMC4604168 (melanoma cell lines):
# The list shows a part of the results. Single values are uncertain, as repeats are few or missing.
# How the values were obtained:
# Assay in all cases: cell count relative to DMSO control; melanoma cells; higher = more viable cells
# MZ2-MEL = details: library dose: low library concentration; 72 h
# MeWo = details: library dose: low library concentration; 72 h
# RPMI7951 = details: library dose: low library concentration; 72 h
# RVH-421 = details: library dose: low library concentration; 72 h
# SkMel28 = details: library dose: low library concentration; 72 h
# SkMel30 = details: library dose: low library concentration; 72 h
# UACC62 = details: library dose: low library concentration; 72 h
# WM115 = details: library dose: low library concentration; 72 h
# WM1716 = details: library dose: low library concentration; 72 h
# WM1745 = details: library dose: low library concentration; 72 h
# WM3526 = details: library dose: low library concentration; 72 h
# WM3619 = details: library dose: low library concentration; 72 h
# WM451Lu = details: library dose: low library concentration; 72 h
# SkMel2 = details: library dose: low library concentration; 72 h
# SkMel5 = details: library dose: low library concentration; 72 h
# UACC257 = details: library dose: low library concentration; 72 h
# 501Mel = details: library dose: standard library concentration; 72 h
# A101D = details: library dose: standard library concentration; 72 h
# A2058 = details: library dose: standard library concentration; 72 h
# A375 = details: library dose: standard library concentration; 72 h
structure (smiles),measurement,setting,value
"CN1CCN(c2ccc3nc(-c4c(N)c5c(F)cccc5[nH]c4=O)[nH]c3c2)CC1 [Dovitinib] + CO[C@H]1C[C@@H]2CC[C@@H](C)[C@@](O)(O2)C(=O)C(=O)N2CCCC[C@H]2C(=O)O[C@H]([C@H](C)C[C@@H]2CC[C@@H](OCCO)[C@H](OC)C2)CC(=O)[C@H](C)/C=C(\C)[C@@H](O)[C@@H](OC)C(=O)[C@H](C)C[C@H](C)/C=C/C=C/C=C/1C [everolimus] (first compound 0.1 µM, partner dose 0.02 µM)",cell count,MZ2-MEL,67.6%
same,cell count,MeWo,57.4%
same,cell count,RPMI7951,85.2%
same,cell count,RVH-421,74%
same,cell count,SkMel28,40.4%
same,cell count,SkMel30,37.3%
same,cell count,UACC62,52.9%
same,cell count,WM115,65.2%
same,cell count,WM1716,78.8%
same,cell count,WM1745,74.8%
same,cell count,WM3526,59.8%
same,cell count,WM3619,80%
same,cell count,WM451Lu,68.2%
"C[C@@H](Oc1cc(-c2cnn(C3CCNCC3)c2)cnc1N)c1c(Cl)ccc(F)c1Cl [Crizotinib] + COCC[n+]1c2c(n(Cc3cnccn3)c1C)C(=O)c1ccccc1C2=O [YM155] (first compound 0.2 µM, partner dose 0.0004 µM)",cell count,MeWo,92%
same,cell count,RPMI7951,86.6%
same,cell count,RVH-421,133%
same,cell count,SkMel28,96.2%
same,cell count,SkMel30,98.5%
same,cell count,UACC62,101%
same,cell count,WM115,84.3%
same,cell count,WM1716,113%
same,cell count,WM1745,90.7%
same,cell count,WM3526,104%
same,cell count,WM3619,105%
same,cell count,WM451Lu,89.4%
"C[C@@H](Oc1cc(-c2cnn(C3CCNCC3)c2)cnc1N)c1c(Cl)ccc(F)c1Cl [Crizotinib] + O=C(Nc1ccccc1)c1cc([N+](=O)[O-])ccc1Cl [GW9662] (first compound 0.2 µM, partner dose 2 µM)",cell count,MeWo,104%
same,cell count,RPMI7951,106%
same,cell count,RVH-421,96.8%
same,cell count,SkMel28,101%
same,cell count,SkMel2,92.8%
same,cell count,SkMel30,92.6%
same,cell count,SkMel5,94.8%
same,cell count,UACC257,120%
same,cell count,UACC62,96%
same,cell count,WM115,91.6%
same,cell count,WM1716,124%
same,cell count,WM1745,88.8%
same,cell count,WM3526,108%
same,cell count,WM3619,95.7%
same,cell count,WM451Lu,114%
"C=CCNC1=C2C[C@@H](C)C[C@H](OC)[C@H](O)[C@@H](C)/C=C(\C)[C@H](OC(N)=O)[C@@H](OC)/C=C\C=C(/C)C(=O)NC(=CC1=O)C2=O [Tanespimycin] + CCN(CC)CCCCNc1ncc2cc(-c3cc(OC)cc(OC)c3)c(NC(=O)NC(C)(C)C)nc2n1 [PD173074] (first compound 0.01 µM, partner dose 0.5 µM)",cell count,501Mel,74.6%
same,cell count,A101D,73.5%
same,cell count,A2058,95.6%
same,cell count,A375,81%
"C[C@@H](Oc1cc(-c2cnn(C3CCNCC3)c2)cnc1N)c1c(Cl)ccc(F)c1Cl [Crizotinib] + Oc1nc(-c2ccc(C(F)(F)F)cc2)nc2c1CSCC2 [XAV939] (first compound 1 µM, partner dose 10 µM)",cell count,501Mel,99.7%
same,cell count,A101D,95.1%
same,cell count,A2058,67.4%
same,cell count,A375,102%
"CN1CCN(c2ccc3nc(-c4c(N)c5c(F)cccc5[nH]c4=O)[nH]c3c2)CC1 [Dovitinib] + Nc1ccn([C@@H]2O[C@H](CO)[C@@H](O)C2(F)F)c(=O)n1 [gemcitabine] (first compound 0.1 µM, partner dose 0.0004 µM)",cell count,MeWo,85.1%
same,cell count,RPMI7951,88%
same,cell count,RVH-421,110%
same,cell count,SkMel28,75.5%
same,cell count,SkMel30,46.1%
same,cell count,UACC62,82%
same,cell count,WM115,97.6%
same,cell count,WM1716,112%
same,cell count,WM1745,68.6%
same,cell count,WM3526,78.7%
same,cell count,WM3619,89%
same,cell count,WM451Lu,81.1%
"CN1CCN(c2ccc3nc(-c4c(N)c5c(F)cccc5[nH]c4=O)[nH]c3c2)CC1 [Dovitinib] + O=S(=O)(c1ccccc1)N(CC(F)(F)F)c1ccc(C(O)(C(F)(F)F)C(F)(F)F)cc1 [T0901317] (first compound 0.1 µM, partner dose 1.4 µM)",cell count,MeWo,98.8%
same,cell count,RPMI7951,108%
same,cell count,RVH-421,77.2%
same,cell count,SkMel28,112%
same,cell count,SkMel2,102%
same,cell count,SkMel30,90.8%
same,cell count,SkMel5,87.3%
same,cell count,UACC257,109%
same,cell count,UACC62,84.2%
same,cell count,WM115,93.9%
same,cell count,WM1716,104%
same,cell count,WM1745,68.5%
same,cell count,WM3526,70.4%
same,cell count,WM3619,108%
same,cell count,WM451Lu,105%
"C=CCNC1=C2C[C@@H](C)C[C@H](OC)[C@H](O)[C@@H](C)/C=C(\C)[C@H](OC(N)=O)[C@@H](OC)/C=C\C=C(/C)C(=O)NC(=CC1=O)C2=O [Tanespimycin] + CCc1ccc(CCOc2ccc(CC3SC(=O)NC3=O)cc2)nc1 [pioglitazone] (first compound 0.01 µM, partner dose 10 µM)",cell count,501Mel,78.2%
same,cell count,A101D,81.3%
same,cell count,A2058,97.4%
same,cell count,A375,100%
"C[C@@H](Oc1cc(-c2cnn(C3CCNCC3)c2)cnc1N)c1c(Cl)ccc(F)c1Cl [Crizotinib] + C=CCNC1=C2C[C@@H](C)C[C@H](OC)[C@H](O)[C@@H](C)/C=C(\C)[C@H](OC(N)=O)[C@@H](OC)/C=C\C=C(/C)C(=O)NC(=CC1=O)C2=O [Tanespimycin] (first compound 0.2 µM, partner dose 0.002 µM)",cell count,MeWo,100%
same,cell count,RPMI7951,100%
same,cell count,RVH-421,88.6%
same,cell count,SkMel28,101%
same,cell count,SkMel2,103%
same,cell count,SkMel30,109%
same,cell count,UACC62,106%
same,cell count,WM115,94.6%
same,cell count,WM1716,129%
same,cell count,WM1745,98.9%
same,cell count,WM3526,119%
same,cell count,WM3619,88.4%
same,cell count,WM451Lu,99%
"CNC(=O)c1cc(Oc2ccc(NC(=O)Nc3ccc(Cl)c(C(F)(F)F)c3)cc2)ccn1 [sorafenib] + CCCCCCCCCCCC1=C(O)C(=O)C=C(O)C1=O [Embelin] (first compound 2 µM, partner dose 6 µM)",cell count,501Mel,86%
same,cell count,A101D,90.8%
same,cell count,A2058,103%
same,cell count,A375,82.7%
"C=CCNC1=C2C[C@@H](C)C[C@H](OC)[C@H](O)[C@@H](C)/C=C(\C)[C@H](OC(N)=O)[C@@H](OC)/C=C\C=C(/C)C(=O)NC(=CC1=O)C2=O [Tanespimycin] + O=c1cc(-c2cccc3c2Sc2ccccc2S3)oc(N2CCOCC2)c1 [KU55933] (first compound 0.01 µM, partner dose 5 µM)",cell count,501Mel,96.5%
same,cell count,A101D,80.6%
same,cell count,A2058,82.2%
same,cell count,A375,112%
"CS(=O)(=O)CCNCc1ccc(-c2ccc3ncnc(Nc4ccc(OCc5cccc(F)c5)c(Cl)c4)c3c2)o1 [lapatinib] + C[C@]1(c2nc3c(C(N)=O)cccc3[nH]2)CCCN1 [Veliparib] (first compound 0.8 µM, partner dose 1.4 µM)",cell count,MeWo,87.3%
same,cell count,RPMI7951,84.2%
same,cell count,RVH-421,91.6%
same,cell count,SkMel28,75.1%
same,cell count,SkMel30,83.8%
same,cell count,UACC62,80.4%
same,cell count,WM115,86.9%
same,cell count,WM1716,94.4%
same,cell count,WM1745,76.3%
same,cell count,WM3526,98.1%
same,cell count,WM3619,104%
same,cell count,WM451Lu,96.5%
